Several values for one entry are separate records, joined by “and”; a condition that tells them apart may be missing. Equal values may be shown once. About 16,000 (7.3%) of roughly 220,000 compounds were called active. The shares of active, inactive and inconclusive entries below differ from those in the screen. Calls come from the whole dose curve; as a rule, active = well fitted inhibition curve with a large enough effect (not every such curve was filed as active); inconclusive = small, poorly fitted or top-dose-only effect, or another doubt; inactive = no such curve, though single readings can be large or run the other way. Potencies of inconclusive entries are doubtful fits and often do not repeat.
target: Aldehyde dehydrogenase 1A1 (Homo sapiens) (UniProt P00352); assay: qHTS Assay for Inhibitors of Aldehyde Dehydrogenase 1 (ALDH1A1); settings: Purified ALDH1A1, NADH fluorescence, propionaldehyde substrate; series mostly up to 75.3 µM;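 for activity, negative = inhibition: plate controls were no enzyme wells and a reference inhibitor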
UniProt P00352, sequence (P00352 whole entry, looked up): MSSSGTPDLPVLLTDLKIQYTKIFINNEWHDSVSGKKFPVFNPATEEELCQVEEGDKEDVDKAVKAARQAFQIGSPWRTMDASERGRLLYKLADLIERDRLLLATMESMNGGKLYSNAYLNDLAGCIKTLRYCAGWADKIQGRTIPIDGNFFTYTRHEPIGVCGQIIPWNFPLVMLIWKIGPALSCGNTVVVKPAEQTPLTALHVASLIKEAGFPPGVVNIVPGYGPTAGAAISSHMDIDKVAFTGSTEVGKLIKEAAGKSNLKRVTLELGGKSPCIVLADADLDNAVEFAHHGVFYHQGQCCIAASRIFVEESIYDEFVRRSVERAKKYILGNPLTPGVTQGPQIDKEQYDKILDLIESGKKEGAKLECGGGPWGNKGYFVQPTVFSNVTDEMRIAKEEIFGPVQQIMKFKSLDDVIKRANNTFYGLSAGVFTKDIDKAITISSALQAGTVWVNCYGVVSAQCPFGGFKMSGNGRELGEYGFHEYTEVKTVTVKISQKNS
Potency is the fitted concentration of half-maximal effect; tags give direction and shape of the fitted curve.

Row | Structure (SMILES) | Potency | activity, negative = inhibition
1 | CC(=O)c1cccc(N(CC(=O)N2CCOCC2)S(C)(=O)=O)c1 | inconclusive: 39.8 µM [inhibitor, single point] | –
2 | COc1nc(-c2ccccc2)ccc1-c1noc(-c2ccccc2F)n1 | inconclusive: 28.2 µM [inhibitor, partial curve] | –
3 | COc1nc(N/N=C/c2cc3c(cc2Br)OCO3)nc(N2CCOCC2)n1 | active: 7.94 µM | –
4 | COc1cccc(-n2nnc3c(=O)n(Cc4cccc(C)c4)cnc32)c1 | inconclusive: 10 µM [inhibitor, partial curve] | –
5 | Cc1ccc(-n2nnnc2SCc2nnc(-c3ccccc3Br)o2)c(C)c1 | inactive | –
6 | O=C(NN1C(=O)c2ccc(-c3ccc4c(c3)C(=O)N(NC(=O)c3cccnc3)C4=O)cc2C1=O)c1cccnc1 | inactive | –
7 | CCCCn1c(=O)nc2n(-c3ccc(OC)cc3)c3ccccc3cc-2c1=O | active: 8.91 µM | –
8 | Cc1nc2ccccc2n1CCC(=O)O | inactive | –
9 | CCCCNC(=S)N(C)N=C1CCC(c2ccccc2)CC1 (stereo not given) | active: 0.631 µM | –
10 | O=C(C1=C[C@H](c2csc3ccccc23)C[C@H](OCc2ccc(CO)cc2)O1)N1CCN(Cc2ccccc2)CC1 | inconclusive: 20 µM [inhibitor, partial curve] | –
11 | OCCN(Cc1ccccc1)C(=S)Nc1ccc(Cl)cc1Cl | inconclusive: 39.8 µM [inhibitor, single point] | –
12 | Cc1ccc(NC(=S)N(CCCN2CCCC2)Cc2cccn2Cc2ccc(Cl)cc2)cc1C | inconclusive: 39.8 µM [inhibitor, single point] | –
13 | CCN(CC)c1ccc(C(=O)OCC(=O)N(C)Cc2ccccc2)cc1 | inconclusive: 44.7 µM [inhibitor, single point] | –
14 | C/C=C1\C(OC2OC(CO)C(O)C(O)C2O)OC=C(C(=O)OC)C1CC(=O)OCC1C(C)C(OC(=O)CC2C(C(=O)OC)=COC(OC3OC(CO)C(O)C(O)C3O)/C2=C\C)CC1C(CO)CO (stereo not given) | inactive | –
15 | C=CCn1c(Cc2ccc(OC)cc2)nnc1SCC(=O)c1cccc([N+](=O)[O-])c1 | inconclusive: 25.1 µM [inhibitor, partial curve] | –
16 | COc1ccc(NC(=O)CC2C(=O)N(c3ccccc3)C(=O)N2CCc2cccs2)cc1 (stereo not given) | inconclusive: 25.1 µM [inhibitor, partial curve] | –
17 | CCOC(=O)OCC1OC(C#CC(C)(C)C)C=CC1OC(=O)OCC (stereo not given) | – | inactive: 23% [at 13.5 µM]
18 | N#C/C(=C\c1ccc(O)c(O)c1)C(=O)NCCCc1ccccc1 | inactive and inconclusive: 22.4 µM [inhibitor, single point] and inconclusive: 17.8 µM [inhibitor, partial curve] | –
19 | CCN(CC)CCN1C(=O)C(=O)/C(=C(/O)c2ccc(OCC(C)C)cc2)C1c1ccncc1 (stereo not given) | inconclusive: 25.1 µM [inhibitor, single point] | –
20 | CCCCc1ccc(-c2csc(/C(C#N)=C\c3ccc(C)o3)n2)cc1 | inactive | –
21 | COc1ccc(CC(=O)Nc2nnc(C(C)C)s2)cc1OC | inactive | –
22 | Cc1ccc(NS(=O)(=O)c2ccc(CCC(=O)NCc3ccccn3)cc2)cc1 | inconclusive: 1.12 µM [inhibitor, full curve] | –
23 | CC1(C)Cc2c(sc3c2c(=N)n(Cc2ccco2)c(=O)n3CC(=O)Nc2cccc(Cl)c2)CO1 | inconclusive: 14.1 µM [inhibitor, partial curve] | –
24 | CCC(=O)N1N=C(c2ccc(Cl)cc2)CC1c1ccco1 (stereo not given) | inconclusive: 39.8 µM [inhibitor, single point] | –

Row | Structure (SMILES) | Potency | activity, negative = inhibition
25 | CCCCN(Cc1ccccc1)C(=O)C1CCCN(S(=O)(=O)c2cnc[nH]2)C1 (stereo not given) | active: 14.1 µM | –
26 | O=C(CSc1ncnc2sc3c(c12)CCCC3)N1CCC(c2noc3ccc(F)cc23)CC1 | inconclusive: 20 µM [inhibitor, single point] | –
27 | O=C(/C=C/c1ccco1)N1CCc2ccccc21 | inconclusive: 25.1 µM [inhibitor, single point] | –
28 | CCCCCCC1NC(C(=O)O)CS1 (stereo not given) | inconclusive: 39.8 µM [inhibitor, single point] | –
29 | CCOc1ccc(NC(=S)c2ccncc2)cc1 | inconclusive: 39.8 µM [inhibitor, single point] | –
30 | COCCn1nnnc1C(c1cccs1)N1CCCC(C)C1 (stereo not given) | active: 11.2 µM | –
31 | CC1=C(C(=O)OCC2CCCO2)C(c2ccncc2)C2=C(CC(C)(C)CC2=O)N1 (stereo not given) | inconclusive: 31.6 µM [inhibitor, single point] | –
32 | Cc1ccc(NC(=O)c2ccccc2)cc1 | inactive | –
33 | O=C1N[C@H](Cc2ccccc2)C(=O)N1Cc1cccc2ccccc12 | inactive | –
34 | COc1ccc(N2C(=O)/C(=C/c3ccc([N+](=O)[O-])cc3)N=C2C)cc1 | inconclusive: 39.8 µM [inhibitor, single point] | –
35 | COc1ccc(S(=O)(=O)N2CCC(C(=O)OCC(=O)c3ccccc3)CC2)cc1[N+](=O)[O-] | inactive | –
36 | CCN1C(=O)C(C(=O)c2ccccc2)SC1=S (stereo not given) | active: 7.51 µM | –
37 | O=S(=O)(c1ccccc1)N1CCC[C@@]2(CCN(c3ccncc3)C2)C1 | inactive | –
38 | CCOC(=O)c1cnn2c(N)c(C#N)cnc12 | inconclusive: 35.5 µM [inhibitor, single point] | –
39 | Cc1ccc(SCc2[nH]nc3c2C2(CCSCC2)C(C#N)=C(N)O3)cc1 | active: 10 µM | –
40 | CCOc1ccc(S(=O)(=O)NCCC(=O)NCc2ccco2)cc1 | inactive | –
41 | O=S(=O)(c1ccccc1)N1CCC(O)(CSc2ccc(Cl)cc2)CC1 | inconclusive: 39.8 µM [inhibitor, single point] | –
42 | CCn1c(SCC(=O)Nc2cc3oc4ccccc4c3cc2OC)nnc1-c1cccs1 | active: 12.6 µM | –
43 | CCCCOc1ccc2c(C)cc(=O)oc2c1OCCCC | inconclusive: 31.6 µM [inhibitor, single point] | –
44 | COc1ccccc1/C=C/C(=O)OC(C)CN1CCOCC1 (stereo not given) | inconclusive: 35.5 µM [inhibitor, single point] | –
45 | COc1ccc2[nH]c(C(=O)O)c(NS(=O)(=O)c3ccc(OC)c(OC)c3)c2c1 | inconclusive: 39.8 µM [inhibitor, single point] | –
46 | CCn1c(=O)c(C(=O)NCc2ccccn2)c(O)c2ccccc21 | inconclusive: 39.8 µM [inhibitor, single point] | –
47 | CCn1c2ccccc2c2cc(NC(=O)CSc3nnc(-c4ccccc4)o3)ccc21 | inconclusive: 20 µM [inhibitor, single point] | –
48 | CCSc1nc2nn(-c3ccccc3)c(=O)c-2c2n1CCCCC2 | active: 2.51 µM | –

Row | Structure (SMILES) | Potency | activity, negative = inhibition
49 | COc1ccc(-n2nc(C(=O)NCC(=O)N3CCN(Cc4ccc5c(c4)OCO5)CC3)c3ccccc3c2=O)cc1OC | inconclusive: 35.5 µM [inhibitor, single point] | –
50 | O=C(Nc1nc(-c2ccccc2)cs1)C1CCCCN1S(=O)(=O)c1ccc(Cl)cc1 (stereo not given) | inactive | –
51 | CCOC(=O)N1CCN(C(=S)NC(=O)c2cncc(Br)c2)CC1 | inconclusive: 39.8 µM [inhibitor, single point] | –
52 | CN(C)c1cccc(NC(=O)Cc2ccc(F)cc2)c1 | active: 14.1 µM | –
53 | CNc1ncnc2ccc(-c3ccccc3C)cc12 | inactive | –
54 | O=C(Cc1ccc(Cl)cc1)Nc1ccc(NC(=O)c2ccccc2)cc1 | inconclusive: 25.1 µM [inhibitor, single point] | –
55 | CC1(C)CC(=O)c2cc(OCC(=O)N3CCCCCC3)ccc2O1 | inconclusive: 28.2 µM [inhibitor, partial curve] | –
56 | Cc1ccc(C(=O)CC(C(=O)O)n2cccn2)cc1 (stereo not given) | inactive | –
57 | O=[N+]([O-])c1cc(S(=O)(=O)Nc2ccccc2)ccc1-n1nnc2ccccc21 | inconclusive: 35.5 µM [inhibitor, single point] | –
58 | CCOC(=O)N/N=C/c1ccccc1-c1cc(OC)ccc1OC | inactive | –
59 | C/C(=N\n1nnnc1Nc1ccccc1)c1ccc(N)cc1 | inconclusive: 39.8 µM [inhibitor, single point] | –
60 | O=C(O)Cc1cc(Cl)ccc1O | – | inactive: 4.59% [at 13.5 µM]
61 | COc1ccc(C(=O)NC(=S)NCc2cccnc2)cc1OC | inconclusive: 17.8 µM [inhibitor, single point] | –
62 | Nc1c(C(=O)NC2CCCC2)sc2nc(-c3cccs3)ccc12 | inconclusive: 31.6 µM [inhibitor, single point] | –
63 | Cc1[nH]c2ccccc2c1C(=O)CSc1n[nH]c(N)n1 | inactive | –
64 | COc1ccc(CN(C)C(C)C(=O)Nc2ccc(S(=O)(=O)N3CCCC3)cc2)c(OC)c1OC (stereo not given) | inconclusive: 28.2 µM [inhibitor, partial curve] | –
65 | COc1ccc(S(=O)(=O)c2c(N)n(Cc3ccco3)c3nc4ccccc4nc23)cc1 | inconclusive: 31.6 µM [inhibitor, partial curve] | –
66 | C/C(=N\N=C(c1ccccc1)c1ccccc1)c1ccco1 | inconclusive: 22.4 µM [inhibitor, single point] | –
67 | Cc1ccc(-c2cn3cc([N+](=O)[O-])ccc3n2)cc1 | inconclusive: 3.16 µM [inhibitor, single point] | –
68 | Cc1ccc(N(CN2C(=O)c3ccccc3C2=O)C(=O)c2ccc([N+](=O)[O-])cc2[N+](=O)[O-])cc1 | inactive | –
69 | CC(=O)N(Cc1ccco1)c1nc(C(=O)Nc2ccc(Cl)cc2)c(C)s1 | inconclusive: 6.31 µM [inhibitor, single point] | –
70 | COc1ccc(S(=O)(=O)NCC(c2cccnc2)N2CCN(c3ccc(F)cc3)CC2)cc1C (stereo not given) | inconclusive: 44.7 µM [inhibitor, single point] | –

— PubChem BioAssay AID1030 (National Center for Advancing Translational Sciences (NCATS), 2008)
